Measured values from the supplement of paper PMC9446081.
The campaign covered roughly 39,000 compounds. About 220 (0.56%) showed activity. The list shows a part of the results.

Tested on: Escherichia coli K-12 BW25113
Experiment: relative growth (OD600 normalised to plate interquartile mean) (fraction); higher = less growth inhibition, active = 0.2 or less
Details: 50 µM; LB; incubation time: overnight (16-24 h)
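Also: static incubation at 37 °C against the wild-type strain, values averaged over two biological replicates.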

SMILES | relative growth
C[C@@H]1CN([C@H](C)CO)C(=O)c2cc(NC(=O)Nc3ccccc3)ccc2O[C@@H]1CN(C)S(C)(=O)=O | inactive: 1.02
COc1ccc(NC(=O)Nc2ccc3c(c2)C(=O)N([C@H](C)CO)C[C@@H](C)[C@@H](CN(C)Cc2ccccc2)OCCCC[C@H](C)O3)cc1 | inactive: 1
C[C@@H]1CN([C@H](C)CO)C(=O)c2cc(C#CCc3ccccc3)cnc2O[C@@H]1CN(C)C(=O)Cc1cccnc1 | inactive: 0.998
CSc1n[nH]c2nc(=O)cc(N)n12 | inactive: 1.02
Cc1ccc(S(=O)(=O)NCC[C@@H]2CC[C@H](NS(=O)(=O)c3ccccc3Cl)[C@H](CO)O2)cc1 | inactive: 0.938
O=C(c1cc2n(n1)CCCO2)N1CC(O)C1 | inactive: 0.989
Cc1ccc(S(=O)(=O)Nc2cccc3c2O[C@@H](CN(C)C(=O)NC(C)C)[C@H](C)CN([C@@H](C)CO)C3=O)cc1 | inactive: 0.859
Cc1ccc(S(=O)(=O)Nc2ccc3c(c2)C(=O)N([C@@H](C)CO)C[C@@H](C)[C@@H](CN(C)C(=O)Nc2c(C)noc2C)OCCCC[C@H](C)O3)cc1 | inactive: 0.983
CC(=O)Oc1cc2c(s1)CCN(C(C(=O)C1CC1)c1ccccc1F)C2 (stereo not drawn) | inactive: 1.05
COc1ccc(S(=O)(=O)N(C)C[C@@H]2Oc3cc(-c4ccccc4OC)ccc3S(=O)(=O)N([C@H](C)CO)C[C@@H]2C)cc1 | inactive: 1.01
COc1ccc(NC(=O)N(C)C[C@@H]2OCCCC[C@@H](C)Oc3ccc(NC(=O)NC(C)C)cc3C(=O)N([C@H](C)CO)C[C@H]2C)cc1 | inactive: 1
C[C@@H]1CN([C@@H](C)CO)C(=O)c2cc(NC(=O)Nc3ccc4c(c3)OCO4)ccc2O[C@@H](C)CCCCO[C@@H]1CN(C)C(=O)NC1CCCCC1 | inactive: 1.04
C[C@H]1CN([C@@H](C)CO)S(=O)(=O)c2ccc(C#Cc3ccc(F)cc3)cc2O[C@H]1CN(C)CC1CC1 | inactive: 0.936
C[C@H](O)C#Cc1cnc2c(c1)C(=O)N([C@@H](C)CO)C[C@H](C)[C@H](CN(C)C(=O)Nc1ccc(C(F)(F)F)cc1)O2 | inactive: 0.996
C[C@@H]1CN([C@H](C)CO)C(=O)CCCn2cc(nn2)CO[C@H]1CN(C)C(=O)Nc1ccnc(N2CCOCC2)c1 | inactive: 0.987
Cn1cnc([N+](=O)[O-])c1Cl | inactive: 1
O=C(C[C@H]1C[C@H]2c3cc(NC(=O)Cc4ccncc4)ccc3O[C@H]2[C@H](CO)O1)NCCc1ccccc1 | inactive: 0.968
COc1cccc(C#Cc2ccc3c(c2)O[C@H](CN(C)S(=O)(=O)c2ccccc2F)[C@@H](C)CN([C@H](C)CO)S3(=O)=O)c1 | inactive: 1.04
C[C@@H]1CN([C@H](C)CO)C(=O)c2cc(NC(=O)CCCN(C)C)ccc2O[C@@H]1CN(C)S(=O)(=O)c1ccccc1 | inactive: 1.01
CCCN(C)C[C@H]1OCCCC[C@@H](C)Oc2ccc(NC(=O)Nc3ccc(C(F)(F)F)cc3)cc2C(=O)N([C@H](C)CO)C[C@H]1C | inactive: 0.957

SMILES | relative growth
COC(=O)c1cn(-c2cccc(N)c2)nn1 | inactive: 1.03
CC[C@@]12O[C@H]3[C@@H](O)[C@H]4C[C@@H]3[C@@H]1[C@@H]4C(=O)N2C | inactive: 0.996
O=C(C[C@H]1CC[C@@H](NC(=O)C2CC2)[C@@H](CO)O1)NCCCN1CCOCC1 | inactive: 1.02
C[C@H](CO)N1C[C@H](C)[C@@H](CN(C)C(=O)NC2CCCCC2)Oc2ccc(NC(=O)Nc3ccc(C(F)(F)F)cc3)cc2CC1=O | inactive: 1.01
CCCNC(=O)N1C[C@H](O)COC[C@H]2O[C@@H](CC(=O)N3CCOCC3)CC[C@@H]21 | inactive: 0.986
COc1ccc(NC(=O)Nc2ccc3c(c2)CC(=O)N([C@@H](C)CO)C[C@@H](C)[C@@H](CN(C)Cc2ccc(C(F)(F)F)cc2)O3)cc1 | inactive: 1
C[C@H](CO)N1C[C@H](C)[C@H](CN(C)C(=O)Nc2ccc(C(F)(F)F)cc2)Oc2ccc(NC(=O)Nc3ccc(C(F)(F)F)cc3)cc2C1=O | inactive: 0.993
CC[C@H](C)[C@H](N)C1=N[C@H](C(=O)N[C@@H](CC(C)C)C(=O)N[C@@H]2CCC(=O)[O][Zn][O]C(=O)C[C@H]3NC(=O)[C@H](Cc4c[nH]cn4)NC(=O)[C@@H](Cc4ccccc4)NC(=O)[C@H]([C@@H](C)CC)NC(=O)[C@@H](CCCN)NC(=O)[C@H](CCCCNC(=O)[C@H](CC(N)=O)NC3=O)NC(=O)[C@H]([C@@H](C)CC)NC2=O)CS1 | inactive: 0.696
COc1ccccc1S(=O)(=O)N[C@@H]1CC[C@H](CCNC(=O)C2CC2)O[C@@H]1CO | inactive: 1
O=C(N[C@H]1C=C[C@@H](CC(=O)N2CCOCC2)O[C@H]1CO)c1ccccn1 | inactive: 0.978
C[C@H](CO)N1C[C@H](C)[C@H](CN(C)S(C)(=O)=O)Oc2ncc(C#Cc3cccnc3)cc2C1=O | inactive: 0.988
OCCN1C[C@H](O)[C@@H](O)[C@H](O)[C@H]1CO | inactive: 0.993
C[C@H](CO)N1C[C@H](C)[C@H](CN(C)Cc2ccc(C(F)(F)F)cc2)OCCCC[C@H](C)Oc2ccc(NC(=O)Cc3ccccc3)cc2C1=O | inactive: 1.02
Cc1ccc(S(=O)(=O)Nc2ccc3c(c2)CC(=O)N([C@@H](C)CO)C[C@@H](C)[C@H](CN(C)C(=O)NC(C)C)O3)cc1 | inactive: 1.01
Cc1ccc(S(=O)(=O)N(C)C[C@@H]2OCCCC[C@H](C)Oc3ccc(NS(=O)(=O)c4ccc(Cl)cc4)cc3C(=O)N([C@@H](C)CO)C[C@@H]2C)cc1 | inactive: 1.03
CNC[C@H]1Oc2ccc(NC(=O)Cn3cnnn3)cc2C(=O)N([C@H](C)CO)C[C@H]1C | inactive: 1.01
CC(C)(O)C1CCC(C)(C2C(O)CC3(C)C4CC(OC5OC(CO)C(O)C(O)C5O)C5C(C)(C)C(OC6OCC(O)C(O)C6O)CCC56CC46CCC23C)O1 (stereo not drawn) | inactive: 0.914
C[C@H]1CN([C@@H](C)CO)C(=O)c2cccc(NC(=O)C3CC3)c2O[C@@H]1CN(C)S(=O)(=O)c1cn(C)cn1 | inactive: 1
O=C(N[C@H]1C=C[C@@H](CC(=O)N2CCOCC2)O[C@@H]1CO)c1ccc2c(c1)OCO2 | inactive: 0.961
C[C@@H]1CCCCO[C@H](CN(C)Cc2ccccc2)[C@@H](C)CN([C@@H](C)CO)C(=O)c2cc(NC(=O)Cc3ccccc3)ccc2O1 | inactive: 0.99

SMILES | relative growth
C[C@@H]1CN([C@H](C)CO)C(=O)Cc2cc(NC(=O)c3ccncc3)ccc2O[C@H]1CN(C)S(=O)(=O)c1ccc(F)cc1 | inactive: 0.998
COc1ccc(CN(C)C[C@H]2Oc3c(NS(=O)(=O)c4cn(C)cn4)cccc3C(=O)N([C@@H](C)CO)C[C@@H]2C)cc1 | inactive: 1
Cc1noc(C)c1NC(=O)N(C)C[C@H]1Oc2ncc(C#CCC(C)C)cc2C(=O)N([C@@H](C)CO)C[C@H]1C | inactive: 1.01
C[C@H]1CN([C@@H](C)CO)S(=O)(=O)c2ccc(C#CCN(C)C)cc2O[C@H]1CN(C)Cc1ccccn1 | inactive: 0.993
C[C@@H]1CN([C@@H](C)CO)C(=O)c2cc(NC(=O)c3ccncc3)ccc2O[C@@H](C)CCCCO[C@H]1CN(C)C(=O)C1CCCCC1 | inactive: 1.03
COc1ccc(NC(=O)N(C)C[C@H]2OCCCC[C@H](C)Oc3ccc(NS(=O)(=O)c4ccc(OC)cc4)cc3C(=O)N([C@@H](C)CO)C[C@H]2C)cc1 | inactive: 1.02
C[C@@H]1CN([C@H](C)CO)C(=O)c2cc(NS(C)(=O)=O)ccc2O[C@H]1CN(C)Cc1ccc2c(c1)OCO2 | inactive: 0.985
COc1ccccc1CNC(=O)C[C@@H]1C[C@@H]2c3cc(NC(=O)C4CCOCC4)ccc3O[C@@H]2[C@@H](CO)O1 | inactive: 0.971
C[C@H]1CN([C@@H](C)CO)C(=O)c2cccc(NC(=O)c3ccncc3)c2O[C@H]1CN(C)Cc1ccc(C(=O)O)cc1 | inactive: 1
COCC(=O)Nc1ccc2c(c1)OC[C@H](C)N(Cc1ccccc1F)C[C@H](C)[C@@H](OC)CN(C)C2=O | inactive: 1.02
C[C@@H]1CN([C@@H](C)CO)C(=O)CCCn2nncc2CO[C@@H]1CN(C)C(=O)Nc1ccc(C(C)(C)C)cc1 | inactive: 0.988
CCOC(=O)N1CCN(C(=O)C2CCN(S(=O)(=O)N(CC)CC)CC2)CC1 | inactive: 1.01
COCCN1C[C@]23CN(C(=O)COC)C[C@@H](C[C@H]2S1(=O)=O)O3 | inactive: 1.02
NCC[C@@H]1CC[C@@H](NC(=O)C2CCCCC2)[C@H](CO)O1 | inactive: 0.98
CCC(C)C1NC(=O)C(CCNCS(=O)(=O)[O-])NC(=O)C(NC(=O)C(CCNCS(=O)(=O)[O-])NC(=O)C(NC(=O)C(CCNCS(=O)(=O)[O-])NC(=O)CCCCC(C)C)C(C)O)CCNC(=O)C(C(C)O)NC(=O)C(CCNCS(=O)(=O)[O-])NC(=O)C(CCNCS(=O)(=O)[O-])NC(=O)C(C(C)CC)NC1=O.[Na+].[Na+].[Na+].[Na+].[Na+] (stereo not drawn) | active: 0.0529
C[C@@H]1CN([C@H](C)CO)C(=O)c2cc(-c3cccnc3)cnc2O[C@H]1CN(C)Cc1ccc(Oc2ccccc2)cc1 | inactive: 1.04
C[C@@H]1CN([C@@H](C)CO)C(=O)Cc2cc(NC(=O)Nc3ccc(F)cc3)ccc2O[C@@H]1CN(C)Cc1ccc(-c2ccccc2)cc1 | inactive: 1.02
C[C@H]1CN([C@@H](C)CO)C(=O)c2cccc(NS(=O)(=O)c3ccccc3)c2O[C@H]1CN(C)S(=O)(=O)c1cn(C)cn1 | inactive: 0.99
